Test results reported in patent US11344574B2, “Fluoro substituted porphyrin compounds, pharmaceutical compositions comprising the same, and methods of preparing and using the same” (Duke University, priority 2017, dated 2022).

Key:
[1] = Metal-centered reduction potential for the Mn^IIIP/Mn^IIP redox couple; format: physicochemical; conditions: vs normal hydrogen electrode
[2] = SOD mimicking: catalysis of O2.^− dismutation; format: biochemical; conditions: for log kcat (O2−^•): ability to mimic SOD enzyme in catalysis of O2.^− dismutation
[3] = Ability of MnP to catalyze ascorbate oxidation, initial rates assessed spectrally; conditions: for v0(Asc oxid): initial rate of ascorbate oxidation, 10 μM MnP, 1 mM Asc, aerobic, 25 °C, pH 7.8
Mouse toxicity = format: in vivo; conditions: Mn3 vs Mn2, FIG. 4 panel A
[4] = Blood pressure drop (hypotension) after iv MnP; conditions: Mn3 vs Mn2, FIG. 4 panel D
prostate tissue = test: Radioprotection of prostate tissue, histopathology (H&E); conditions: in the presence of Mn4 and RT, ascorbate 1 g/kg
Protocol: Tissue was stained with H&E.
Mn4 administration started at 24 hours before RT. Mn4 was given at 0.5 mg/kg sc for the first 4 weeks daily except for weekends, and then twice weekly for the next 5 weeks. Single 20 Gy RT dose was given.
The tissues were preserved, half of them in formalin and another half snap-frozen for different analyses. Prostate is the only tissue directly radiated and the penile function was known to suffer radiation damage.

| Molecule | E1/2, mV vs NHE [1] | log kcat (O2−^•) [2] | v0(Asc oxid) [3] | redox activity with regards to SOD mimicking (in words) ([2]; vs Mn2, FIG. 4 panel B) | lower mouse toxicity (Mouse toxicity) | lower hypotension [4] | catalysis of ascorbate oxidation (in words) ([3]; compared with non-fluorinated MnP) | toxicity of ascorbate addition to prostate tissue (prostate tissue) |
| --- | --- | --- | --- | --- | --- | --- | --- | --- |
| CC[n+]1ccccc1-c1c2nc(c(-c3cccc[n+]3CC)c3ccc([n-]3)c(-c3cccc[n+]3CC)c3nc(c(-c4cccc[n+]4CC)c4ccc1[n-]4)C=C3)C=C2.[Mn+3] [Mn1, MnTE-2-PyP^5+, reference compound] | +228 mV | 7.76 | 321 nM/s |  |  |  |  |  |
| FCC[n+]1ccccc1C1=C2C=CC3=[N+]2[Mn]24[n]5c1ccc5C(c1cccc[n+]1CCF)=C1C=CC(=[N+]12)C(c1cccc[n+]1CCF)=c1ccc([n]14)=C3c1cccc[n+]1CCF [Mn3, Mn(III) 5,10,15,20-tetra(2-fluoroethylpyridinium-2-yl)porphinato pentachloride] | +242 mV | 7.91 | 543 nM/s | largely improved redox activity with regards to SOD mimicking | ~10 fold | > 10 fold | increased catalytic potency with regards to Asc oxidation |  |
| O=C1O[C@H]([C@@H](O)CO)C(O)=C1O [ascorbate, reference compound] |  |  |  |  |  |  |  | not toxic to prostate tissue |
| Mn(III) ortho N-butoxyethylpyridylporphyrin [Mn2, reference compound] | +277 mV | 7.83 | 296 nM/s |  |  |  |  |  |
| MnTnPen-2-PyP^5+ [reference compound] | +278 mV | 7.36 | 164 nM/s |  |  |  |  |  |
